Data from PubChem BioAssay AID1963576 (National Center for Advancing Translational Sciences (NCATS), 2024).
Among all 46,000 compounds or so, about 60 (0.1%) were called active. Roughly 3% stayed inconclusive and do not appear here. The call rests on the fitted dose curve; in most records, active means well fitted inhibition curve with a large enough effect; inconclusive means small, poorly fitted or top-dose-only effect; inactive means no such curve, though single readings can be large or run the other way. The list shows a part of the results.

assay: Primary qHTS assay for Inhibitors of ovarian cancer metastasis using an organotypic tumor microenvironment (TME) model.; further: nearly all actives have a fitted effect of over 65% in size;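 on activity change, negative = inhibition: plate controls were DMSO wells for no effect and tomatine positive control wells for full effect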; conditions: SKOV3ip1-GFP adhesion/invasion on 3D omental model, fluorescence; series mostly up to 45.8 µM; activity change, negative = inhibition: at the top concentration
How it was run: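 A 3D layer of primary human omental fibroblasts, mesothelial cells, fibronectin and collagen I, grown 48 hr, received SKOV3ip1-GFP cells in serum-free medium plus compounds at 0.36-46 umol/L. After 2 hr RT and 16 hr 37 C, fixed adherent GFP cells were counted; normalized to DMSO and tomatine.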

Activity change, negative = inhibition, inactive:
O=C(Nc1ccc2oc(-c3cccnc3)nc2c1)c1ccc(-c2ccccc2)o1 -7.37%
COc1ccc(OC(C)c2nc3ccccc3[nH]2)cc1 (stereo unspecified) 0.761%
O=c1cc(-c2ccc(F)cc2)nc(SCc2nc(-c3ccccc3Cl)no2)[nH]1 2.51%
CCOC(=O)c1ccc(NC(=O)c2csc3c2CCCCC3)cc1 -13.9%
COc1cc(NC(=O)C(CC(C)C)NS(=O)(=O)c2ccc3c(c2)oc(=O)n3C)c(C(=O)O)cc1OC (stereo unspecified) 1.57%
CCOc1ccc(NC(=O)C(=O)NCCc2csc3nc(-c4ccccc4F)nn23)cc1 -5.04%
COC(=O)c1ccc(Cl)cc1NC(=O)N(C)CCc1c(C)nn(C)c1C -3.99%
Cc1cccc(N2CCN(C(=O)c3cc4c(=O)n(C)c5ccccc5c4s3)CC2)c1C 3.78%
O=C(O)c1ccc2nc(-c3cc4cc(F)ccc4oc3=O)[nH]c2c1 -1.2%
O=C(COc1ccccc1Cl)Nc1ccc(Cl)c(-c2nc3ccccc3o2)c1 -5.89%
Cc1ccc(-n2ccnc(NCCc3ccc(S(N)(=O)=O)cc3)c2=O)cc1C -1.39%
CCC1CCCCN1C(=O)CSc1nc2c([nH]c3ccccc32)c(=O)n1-c1cccc(OC)c1 (stereo unspecified) -4.78%
COc1ccc(CCn2c3c(c(=O)[nH]c2=O)C(NC(=O)c2ccccc2OC)(C(F)(F)F)C(=O)N3)cc1OC (stereo unspecified) 23.6%
CCc1cccc(C)c1Nc1c(-c2cccc(O)c2)nc2cnccn12 21.2%
CCOC(=O)C1=C(CN2CCN(c3ccccc3F)CC2)NC(=O)NC1c1ccc(OC)cc1 (stereo unspecified) 49.7%
CCOc1ccccc1NC(=O)Cn1nc2c3cc(F)ccc3n(Cc3cccc(C)c3)cc-2c1=O 11.3%
COc1ccccc1CNC(=O)Cn1c(-c2cccs2)cc2cc(F)ccc21 -1.37%

outcome, inactive:
CCOc1ccc(NC(=O)Cn2cc(C(=O)c3ccc(C)c(C)c3)c(=O)c3cc(OC)c(OC)cc32)cc1
Cc1ccc(CN2CCN(C3CCN(S(=O)(=O)c4ccc(C)cc4)CC3)C(=O)C2=O)cc1
Cc1oc(-c2cccc(Cl)c2)nc1CSc1nc2ncccc2[nH]1
COc1cc(C(=O)Nc2ccc(NC(=O)c3ccc(Br)cc3)cc2)cc(OC)c1OC
Cc1ccc(CNC(=O)CCc2c(C)nn(-c3ccc(N4CCCC4)nn3)c2C)cc1
COC(=O)CSc1ccc2nnc(CCNS(=O)(=O)c3ccc(C)cc3)n2n1
COc1ccc(/C=C/c2nc(C#N)c(NC3CCCCC3)o2)cc1OC
O=C(CCS(=O)(=O)c1cc2c3c(c1)CCN3C(=O)CC2)NCc1ccc(Cl)cc1
COc1cc2c(C(=O)N3CCN(c4ccc(C)cc4)C(C)C3)cn(CC(C)C)c(=O)c2cc1OC (stereo unspecified)
